# Test results from the supplement of paper PMC3334620.
# In all, about 33,000 sequences were measured (“E-score (-0.5 to 0.5)”: median about -0.035, highest 2% from about 0.35 on). The list shows a part of the results.
# Molecular target: T1, Pdr3 (UniProt P33200)
# T1 sequence: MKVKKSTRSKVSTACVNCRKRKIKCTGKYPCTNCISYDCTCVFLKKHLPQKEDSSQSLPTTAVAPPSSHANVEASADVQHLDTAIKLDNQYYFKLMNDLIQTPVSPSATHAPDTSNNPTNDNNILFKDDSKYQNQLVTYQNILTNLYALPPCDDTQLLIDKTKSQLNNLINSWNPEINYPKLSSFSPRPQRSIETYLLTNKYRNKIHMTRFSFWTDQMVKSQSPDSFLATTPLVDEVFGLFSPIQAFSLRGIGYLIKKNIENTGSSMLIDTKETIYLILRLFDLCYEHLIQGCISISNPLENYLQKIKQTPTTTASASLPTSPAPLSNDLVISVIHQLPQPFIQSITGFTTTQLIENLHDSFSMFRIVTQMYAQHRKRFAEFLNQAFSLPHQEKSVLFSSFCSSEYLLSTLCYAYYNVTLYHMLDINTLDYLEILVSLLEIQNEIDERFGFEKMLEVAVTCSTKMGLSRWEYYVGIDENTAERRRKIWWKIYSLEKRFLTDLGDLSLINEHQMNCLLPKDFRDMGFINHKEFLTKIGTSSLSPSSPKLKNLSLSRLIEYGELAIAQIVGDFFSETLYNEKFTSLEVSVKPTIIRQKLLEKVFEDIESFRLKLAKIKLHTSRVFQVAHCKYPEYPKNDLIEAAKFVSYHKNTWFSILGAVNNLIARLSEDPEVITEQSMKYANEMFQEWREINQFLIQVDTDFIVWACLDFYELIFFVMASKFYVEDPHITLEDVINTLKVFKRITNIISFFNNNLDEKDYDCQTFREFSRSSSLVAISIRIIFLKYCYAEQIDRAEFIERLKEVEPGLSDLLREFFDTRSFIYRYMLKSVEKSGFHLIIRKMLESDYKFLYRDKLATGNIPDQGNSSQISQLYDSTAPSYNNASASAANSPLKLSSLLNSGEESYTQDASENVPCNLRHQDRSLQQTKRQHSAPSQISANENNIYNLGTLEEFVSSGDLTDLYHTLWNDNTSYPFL
# Assay: PBM E-score (8-mer binding enrichment) (E-score (-0.5 to 0.5)); higher = stronger / more preferred TF binding; most listed sequences are background and not binding sites
# Conditions: protein concentration: 200 nM; construct: GST-full length
# In short: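 Full-length yeast transcription factors or their DNA-binding domains, GST-tagged and expressed with PURExpress, were applied at about 100-200 nM to universal all-10-mer Agilent arrays. These arrays had been made double-stranded by primer extension on fresh or once-stripped slides. Detection used fluorescent anti-GST, normalisation used masliner, and E-scores for ungapped eight-base words pooled with reverse complements came from the Universal PBM Analysis Suite.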
row,Sequence,PBM E-score
1,AGTCGCAG,-0.123
2,GAAAGTTA,0.0742
3,GCCCTAGA,-0.289
4,CATGAGCG,0.0244
5,GACCTATC,0.119
6,AATAAACT,0.0459
7,AAGCACGC,-0.0203
8,ATGAGTAG,0.024
9,CGAGACAG,0.021
10,ACGTTGTC,-0.0301
11,CCTCAGTC,-0.131
12,GATGAAAA,0.0909
13,CTTCAACA,-0.11
14,AAATGCTC,0.0595
15,CTTCTTAA,-0.101
16,AGGGCGCG,-0.0829
17,AGCAATTC,0.0731
18,TGGGCTAA,-0.0141
19,AACGGTCG,0.0464
20,CCTCGGCG,0.376
21,AGGAGCCC,-0.0219
22,AAGTCGAC,0.156
23,AAAACACA,-0.0183
24,AAAAAAAG,0.0406
25,ATTCCATA,0.154

row,Sequence,PBM E-score
1,AAACTCAG,-0.121
2,CGCCCGAA,0.117
3,CCACCATC,-0.0466
4,CGACGGCC,0.0868
5,ACGAGCCG,0.134
6,ACAAGCTA,-0.252
7,GATCGCCC,0.00089
8,ACTAGGTC,0.0375
9,CGATTTAC,-0.00669
10,AATGTTTA,-0.127
11,ATTACCCA,-0.0954
12,TCTTATCA,-0.00735
13,ATGCAGCA,0.00559
14,CAACGGTG,-0.0539
15,CACCGCGA,0.032
16,ACGTCAAT,-0.149
17,AAAATTTC,0.00912
18,ACGGGGTG,0.0711
19,TGAATTAA,0.00397
20,AGATTGGG,0.0328
21,CCTTCACC,-0.0792
22,AGGAATTC,-0.00951
23,AAAACGCT,-0.241
24,CAACTATA,-0.194
25,ACCGTCCA,0.179

row,Sequence,PBM E-score
1,AGACACGC,-0.103
2,AATGGTAT,0.0151
3,GAGACGCC,0.0213
4,GTAACTCA,-0.141
5,TCCAGACA,-0.0374
6,GACTTGTA,-0.122
7,AGCCCAGG,-0.269
8,CCTCCTCA,-0.199
9,AACTGAGT,-0.0514
10,AAAGTGCA,-0.0229
11,ACCCATAC,-0.155
12,ACTGCCCT,-0.0837
13,AAAAAGGC,-0.00478
14,CAAACGGA,0.37
15,ACACTGCG,0.0149
16,CTACCTCC,0.0355
17,AAGGAGGG,-0.0665
18,ATGTGATG,-0.229
19,TCACCGGA,0.329
20,GGAGAAAC,0.132
21,CGCGGCGC,0.398
22,ACATAGAT,-0.085
23,CAAGAGAC,-0.28
24,ATCGCTGA,0.0401
25,CCCCACAC,-0.106

row,Sequence,PBM E-score
1,CCCCTTTC,0.00738
2,TAGCGAAA,-0.0832
3,TAGCTACA,-0.047
4,ACAGCTGT,-0.0906
5,TCGGCCGA,0.377
6,ATCAAAGC,0.0706
7,CGGGAGTA,0.294
8,GCAACAGC,-0.0537
9,GGGCCCAC,0.255
10,ACCGCTCA,0.00997
11,ATTTCGAC,-0.174
12,AATTTGAT,0.0365
13,CGTCGCTC,0.0274
14,TTCAGCAA,-0.239
15,ACAACCGC,0.202
16,TATCGGCA,0.101
17,CCCCAATC,-0.0459
18,ACTCGGAA,0.427
19,GGGGTGCA,0.233
20,CGACTGCG,0.0722
21,ACCATATA,0.0167
22,CGGATAAG,0.305
23,CGTGGCCC,-0.11
24,AATCTCGA,0.0359
25,AAGAGCGA,-0.156

row,Sequence,PBM E-score
1,GAAACTCA,-0.0846
2,GCAATCCA,-0.0294
3,GTCATGAC,0.115
4,ACCAAATG,0.0229
5,CGAAACAA,0.11
6,ACCCTAGT,-0.319
7,GAAAGATA,0.0374
8,GGTGGCCA,-0.0261
9,AATCCGAC,0.218
10,CGTACTAA,0.0211
11,AGTGGGCG,0.0424
12,CGACTGAA,0.0644
13,CTGTACTC,-0.245
14,ACCCCCCA,-0.252
15,CGCTCCGA,0.318
16,ACAATGGA,0.199
17,ACGCTTCC,0.204
18,GACTAAAC,-0.136
19,CAAGCGTG,-0.15
20,TCTATACA,-0.274
21,AGACTAGG,-0.3
22,ATCTTAGG,-0.166
23,AACCTCGT,-0.0839
24,CCCACAGA,-0.273
25,GTGGTGGA,-0.0783

row,Sequence,PBM E-score
1,ATCAGATA,-0.159
2,CGGATAGA,0.311
3,CGATTAGA,0.026
4,GGTACCTA,-0.0642
5,ACGTTTGA,0.0578
6,GCCAGAAC,-0.074
7,CTTGGCAC,-0.117
8,CGGGTAGC,0.17
9,ATATAGCC,0.118
10,CTTGGCCA,-0.0613
11,ATCTTCCA,-0.196
12,CGGTTGTC,0.134
13,GCGACTAA,0.0282
14,GCCTGTAA,-0.249
15,ATATCTAC,0.0754
16,AGCTCGAC,-0.055
17,CCCAGGCC,-0.116
18,ATTACCTA,0.0728
19,AGTTATAG,-0.228
20,GCCCAGCA,0.0207
21,AGTGAGAG,-0.178
22,CAGAGACG,-0.11
23,AGATAACC,-0.107
24,ACTACCAA,-0.0744
25,ACCGCGGA,0.488

row,Sequence,PBM E-score
1,AGCTTTAC,-0.177
2,AGGAAGAA,-0.186
3,GAAAGAAC,0.0631
4,ACGGGGAC,0.268
5,CGTTGACA,-0.115
6,GGCCTGGA,-0.169
7,CACAAGTC,-0.233
8,CCGTCCCA,0.1
9,ATGATAAT,0.0172
10,ATGCTCGA,-0.09
11,GATGGGTA,-0.132
12,AAAGTGGC,-0.0322
13,GCTCATAA,-0.0545
14,ATCAGGTC,-0.0659
15,AATAATCG,0.0741
16,AGTGTCCC,0.132
17,ACGGATAC,0.368
18,CTTTGACA,-0.154
19,CACCAGCC,0.0355
20,CTTCGCAA,-0.106
21,GGGCCATA,0.169
22,TATAGCGA,-0.226
23,AAACATGA,-0.153
24,TCTCTTAA,-0.0927
25,ACCGGTAG,0.0205

row,Sequence,PBM E-score
1,CCTTCGCG,0.156
2,CGCATGGA,0.0271
3,CATTATGG,-0.0619
4,ATCTTGTC,0.0953
5,CTCTCTGA,-0.144
6,CTAACCGA,0.0718
7,CATTGTTA,-0.179
8,AGTGTGGC,0.00366
9,ATGTGGCC,0.034
10,CATTCCAG,-0.131
11,GGAACCCA,0.18
12,GAGTGATA,-0.0471
13,AACGCCAA,0.0256
14,ATGGCCGG,0.239
15,CCCGCTCA,0.143
16,AGAAGGAG,-0.245
17,AGGATTGA,-0.119
18,CTGGGCGC,-0.0849
19,ACCCAATC,0.0522
20,AGAACCAA,-0.0407
21,GACTGGCA,-0.0551
22,AGCAATCG,-0.0482
23,CAATTGGG,-0.0532
24,GACCGCTA,0.00691
25,TAACATAA,0.0329

row,Sequence,PBM E-score
1,CCTTCATC,-0.0906
2,GGTATAAA,0.0349
3,GAATGCTA,-0.0399
4,GGCTTCTA,-0.212
5,ACACCACC,-0.141
6,GCCATTCC,0.255
7,ATTCTGTG,0.0657
8,GATATATA,0.175
9,CGCTATGC,-0.0904
10,TGCTCTAA,-0.268
11,AGGCGCAG,-0.216
12,CGGCAACC,0.286
13,AGGGAAAT,-0.115
14,ACTACTTC,0.0951
15,CAGTCTAC,-0.247
16,AGACAGAG,-0.182
17,ATGCAGCC,-0.0607
18,CGGAATGA,0.435
19,AAGCGAGG,0.0113
